Results from publication PMC6919601, “Identification of Plasmodium dipeptidyl aminopeptidase allosteric inhibitors by high throughput screening” (PLoS ONE, 2019).
The campaign covered roughly 110,000 compounds. About 230 (0.21%) showed an effect of 50% or more. Some of the results follow.

target: DPAP1 (Plasmodium falciparum, UniProt Q8IIJ9); assay: primary screen, percent inhibition; read by cleavage of a fluorogenic dipeptide substrate; higher = more effect of the substance; design: species or system P. falciparum D10 trophozoite lysates; single well
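Further: 30 min substrate incubation versus DMSO and 10 µM JCP410 controls.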

Sequence of DPAP1 (Q8IIJ9 whole entry, looked up): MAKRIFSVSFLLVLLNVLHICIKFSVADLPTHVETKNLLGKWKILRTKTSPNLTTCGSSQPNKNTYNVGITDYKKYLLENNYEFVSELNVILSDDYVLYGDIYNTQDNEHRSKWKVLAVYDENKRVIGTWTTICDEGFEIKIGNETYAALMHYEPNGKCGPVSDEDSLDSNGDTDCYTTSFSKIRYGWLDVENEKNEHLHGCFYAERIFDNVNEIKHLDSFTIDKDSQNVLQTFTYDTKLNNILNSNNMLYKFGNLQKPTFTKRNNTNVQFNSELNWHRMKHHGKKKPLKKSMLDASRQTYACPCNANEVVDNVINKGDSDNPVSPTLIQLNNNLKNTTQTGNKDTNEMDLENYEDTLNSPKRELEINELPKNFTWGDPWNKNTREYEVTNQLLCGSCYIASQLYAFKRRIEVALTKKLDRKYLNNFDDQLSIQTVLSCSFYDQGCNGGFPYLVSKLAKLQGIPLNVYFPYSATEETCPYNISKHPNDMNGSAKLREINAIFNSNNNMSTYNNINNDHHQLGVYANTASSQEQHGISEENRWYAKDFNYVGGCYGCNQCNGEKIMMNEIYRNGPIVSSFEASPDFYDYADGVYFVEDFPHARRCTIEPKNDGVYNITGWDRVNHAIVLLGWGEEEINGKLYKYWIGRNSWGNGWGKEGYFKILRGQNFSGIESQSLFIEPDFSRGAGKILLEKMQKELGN

SMILES	% Inhibition @ 10 uM [%]
CCO/C(O)=C1\C(C)=NC(=S)NC1c1ccc(OC)c(Br)c1 (stereo not drawn)	-2.13
Cc1c(C)n(C)c2ccc(C(=O)NCc3ccc(F)cc3)cc12	3.29
O=C1CC(N2CCN(c3ccccc3)CC2)C(=O)N1c1ccc(F)cc1 (stereo not drawn)	1.92
Cc1n[nH]c(C)c1C12CC3CC(CC(CC(=O)O)(C3)C1)C2	-14.6
CCOC(=O)C1=C(C)N=c2s/c(=C\c3ccco3)c(=O)n2C1c1ccccc1Cl (stereo not drawn)	-3.67
CC(C)Oc1ccc(C(=O)Nc2ccccc2)cc1	7.76
Cc1c2cnn(CC(=O)N3CCC(Cc4ccccc4)CC3)c(=O)c2c(C)n1Cc1ccccc1F	-0.447
CC(=C/C(=O)O)/C=C/c1cccc2ccccc12	2.22
CCS(=O)(=O)C1=NN2C(=N)/C(=C\c3ccc(-c4cccc(Cl)c4)o3)C(=O)N=C2S1	-3.35
CC(C)Oc1ccccc1/C=C1/SC(N2CCOCC2)=NC1=O	8.7
COc1ccc(CNC(=O)CSc2nnc(N)s2)cc1	1.31
Cc1ccccc1C(=O)Nc1nc(-c2nnn(-c3ccccc3C)c2C)ns1	-0.835
COc1ccc2nc(NC(=O)CSc3nc(C)cc(O)n3)sc2c1	-2.74
CCS(=O)(=O)N1CCC2(CC1)OC(=O)C(C)=C2C(=O)NCc1ccccn1	2.24
CS(=O)(=O)c1ccc2nc(NC(=O)c3cccn(OCc4ccccc4)c3=O)sc2c1	-1.66
Cc1ccc(C)c(CN2CCN(C)CC2)c1	-9.49
COc1ccc(C2C(=O)N(CCc3ccccc3)CC(=O)N2Cc2cccs2)cc1 (stereo not drawn)	4.36
CCOC(=O)C1=C(C)N(C)C(=O)N(C)C1c1ccc(O)cc1 (stereo not drawn)	-6.17
O=C(COc1ccc(Br)cc1Br)NCCc1ccccc1	0.035
Cc1cc(Nc2ccc(Cl)cc2)c2cccc(C)c2n1	-6.22
Cc1ccc(Cl)cc1-n1nnnc1C1(Nc2ccccc2)CCCCC1	-1.98
COc1ccc(-c2nc(CSCc3csc(C)c3C)c(C)o2)cc1OC	3.69
O=C(OCC(F)(F)F)c1nsc(Cl)c1Cl	3.73
CCN1CCN(C(=O)c2cc(-c3ccc(Cl)s3)nc3ccccc23)CC1	-0.988
CNCC1COc2ccccc2O1 (stereo not drawn)	3.65

SMILES	% Inhibition @ 10 uM [%]
O=C(Cc1ccsc1-c1ccccc1)NO	-0.415
CCOC(=O)N1CCN(C(=O)C(C)n2nc(C)n3c(cc4sccc43)c2=O)CC1 (stereo not drawn)	1.8
Cc1nn(-c2ccccc2)c(-n2cccc2)c1C(=O)NCCCN1CCN(C)CC1	-1.58
N#Cc1c(N2C(=O)C3C4C=CC(C4)C3C2=O)sc2c1CCC2 (stereo not drawn)	-4.12
CC(=O)C1=NN(c2ccc(Cl)cc2)C2C(=O)N(c3ccccc3Cl)C(=O)C12 (stereo not drawn)	-1.28
COc1ccc(C)cc1NC(=O)c1nn(C)cc1Br	3.79
COc1ccccc1CNS(=O)(=O)c1ccc2c(c1)OCCO2	1.08
COc1ccc(C2C(C#N)=C(C)N=C3CC(c4ccccc4)CC(O)=C32)cc1 (stereo not drawn)	-9.05
CN(C)c1nc(N)nc(Nc2ccccc2C#N)n1	-6.52
CC(=O)NCCNC(=O)CCCCCNc1nc(S)nc2ccccc12	2.38
COc1cccc(/C=C2\SC(=O)N(Cc3ccc(F)cc3)C2=O)c1O	11.2
Cc1ccc(C2CC(=O)N3CN(CCc4ccccc4)CSC3=C2C#N)cc1 (stereo not drawn)	64
CCOc1cc(C2CC(=O)N3CN(Cc4ccccc4)CSC3=C2C#N)ccc1O (stereo not drawn)	19.8
CCCSC1=C(C#N)C(c2ccccc2)C(C(=O)Nc2ccccc2)=C(C)N1 (stereo not drawn)	1.42
COc1cccc(OC)c1C(=O)Nc1ccc(S(=O)(=O)NC23CC4CC(CC(C4)C2)C3)cc1	1.64
CC(C)CC(C(=O)NC1(C#N)CC1)c1cccc(-c2csc(N3CCN(CCO)CC3)n2)c1 (stereo not drawn)	-8.26
O=C(O)CSC(=S)Nc1cccnc1	0.0598
CCOC(=O)C(=O)N1CC2(C)CNCC(C)(C1)C2=O	-0.807
O=C(NCCO)Nc1ccc(Cl)c(Cl)c1	-1.91
FC(F)(F)c1ccccc1CN1CCN(Cc2ccccc2)CC1	-1.86
O=C(Nc1ccc2c(c1)C(=O)N(CC1CCCO1)C2=O)C(c1ccccc1)c1ccccc1 (stereo not drawn)	0.375
COc1cc(C2Nc3ccccc3N=C3CC(C)(C)CC(O)=C32)cc(Br)c1O (stereo not drawn)	-6.44
O=C(O)c1ccc(CN2CCN(c3ccc([N+](=O)[O-])cc3)CC2)cc1	3.16
O=C1NC(=O)C(=Cc2ccc(OCc3ccc(C(=O)O)cc3)c(Br)c2)C(=O)N1	-4.35
O=C1c2ccccc2C(=O)C1(c1ccccc1)N1CCN(c2ccccn2)CC1	-2.99

SMILES	% Inhibition @ 10 uM [%]
c1ccc(CN(Cc2ccccc2)c2ncnc3c2cnn3-c2ccccc2)cc1	-0.357
COc1ccc(S(=O)(=O)Cc2ccc(C(=O)NC3CCCc4ccccc43)o2)cc1 (stereo not drawn)	0.718
CCSc1nc2sc3c(c2c(=O)n1Cc1ccccc1)CCCC3	1.4
COc1ccc2[nH]c3c(=O)n(CCCCC(=O)NCCc4c[nH]c5ccccc45)c(=S)[nH]c3c2c1	4.28
CC(C)CNC(=O)c1cc(-c2ccccc2)nc2ccccc12	0.146
O=C1Nc2ccccc2C12Nc1ccccc1S2 (stereo not drawn)	-6.39
CCCCOc1cc(N(CC)CC)ccc1C=C1C(=O)NC(=O)NC1=O	-2.07
O=C1c2ccccc2C(=O)N1CSc1ncccn1	1.63
CCOc1ccc(CNC(=O)Cn2ccc3cc(S(=O)(=O)N4CCC(C)CC4)ccc32)cc1	-0.899
Cc1cc(C)c(C)c(OCCCn2ccnc2)c1	5.35
CN(C)c1ccc(C(c2c(O)ccc3ccccc23)N2CCOCC2)cc1 (stereo not drawn)	4.88
CC(C)(C)n1nc2c(c1NC(=O)c1ccc(Cl)cc1Cl)CS(=O)(=O)C2	-4.65
COC(=O)c1ccc(OCC2c3cc(OC)c(OC)cc3CCN2C(=O)c2ccccc2OC)cc1 (stereo not drawn)	9.5
O=C(O)C1C2CCC(C2)C1C(=O)Nc1nc(-c2ccc(Br)cc2)cs1 (stereo not drawn)	13.9
COc1cc2c(cc1OC)C(C)N(C(=O)Nc1cn(C)c(=O)c3ccccc13)CC2 (stereo not drawn)	10.3
O=c1c2ccccc2nc(/C=C/c2cccc(Br)c2)n1CCO	15.6
CCN1C(=O)N/C(=C/c2ccc(OCC(=O)O)cc2)C1=O	2
COc1ccccc1C1C(C(C)=O)=C(O)C(=O)N1CCc1ccccc1 (stereo not drawn)	-3.09
CCn1c(=S)[nH]c2sc3c(c2c1=O)CCCC3	42.2
Nc1nc(-c2ccco2)nc(-c2ccco2)n1	-15.6
Cc1ccccc1Cc1c(C)nc2nc(SCC(=O)N3CCC(C)CC3)nn2c1C	-5.69
Cc1ccc(Nc2nc(-c3sc(C)nc3C)cs2)cc1	8.19
CN(CC(=O)N1CCN(c2ncccn2)CC1)S(=O)(=O)c1cccc2nsnc12	3.63
Cc1c(C(=O)N2CCOCC2)sc2nc3n(c(=O)c12)N=C(c1ccc(Cl)cc1)CS3	15.2
Cc1cccc(NC(=O)c2cccc(N3C(=O)C4C5C=CC(C6CC56)C4C3=O)c2)c1 (stereo not drawn)	-4.91

SMILES	% Inhibition @ 10 uM [%]
Cc1cc(C(=O)NC2CCN(Cc3ccccc3)CC2)c2c(C)nn(-c3ccccc3)c2n1	-3.1
CCOC(=O)C1=C(CC)OC(N)=C(C#N)C1c1ccc(Br)s1 (stereo not drawn)	-10.8
O=C(c1c(O)c2ccccc2oc1=O)C1CC1	-2.21
CCOC(=O)c1cc(-c2ccccc2)sc1NC(=O)c1ccc(C)cc1	-6.6
COc1cc(C(=O)N2CCN(C(=O)c3ccccc3)CC2)cc(OC)c1OC	4.83
Cc1nc2sc3c(c2c(=O)n1CC(=O)c1ccc(Cl)c(Cl)c1)CCCC3	4.08
COc1ccc(CCNC(=O)CSc2nc(N)c3c4c(sc3n2)CCC4)cc1OC	48.4
O=C(NCc1cccnc1)c1ccc(COc2ccccc2Br)o1	2.1
C/N=c1\c(NC(=O)c2ccc(Cl)cc2)c(O)oc2ccccc12	2.5
CC(C)c1ccc(N2CC(C(=O)Nc3cccc(F)c3)CC2=O)cc1 (stereo not drawn)	6.86
Nc1c(-c2nc(-c3ccccc3)no2)nnn1-c1cccc(C(F)(F)F)c1	0.868
O=C(c1ccco1)N1CCN(C(=O)C2CCN(c3nnc(-n4cccc4)s3)CC2)CC1	-5.38
Cn1cc([N+](=O)[O-])c(C(=O)Nc2ccc(Cl)cc2)n1	1.38
C=C(C)COc1ccc(/C=C(/NC(=O)c2ccccc2)C(=O)O)cc1OC	-4.93
Clc1ccc(-c2noc3ncnc(N4CCN(c5ncccn5)CC4)c23)cc1	-2.41
Cc1nn(CC(=O)NCCCc2ccccc2)c(=O)c2nn(-c3ccccc3)c(C)c12	-3.81
NC(=O)c1sc2nc3c(cc2c1N)CCC3	-1.07
CC1CCCC(NC(=O)Cn2ccc3ccccc3c2=O)C1C (stereo not drawn)	5.88
CCc1cc(=O)oc2cc(OCc3cccc(F)c3)ccc12	1.84
O=C(Nc1cccc2ccccc12)C12CC3CC(C1)CC(n1cncn1)(C3)C2	-3.68
CC(=O)C1=C(O)C(=O)N(Cc2ccccc2)C1c1ccccc1 (stereo not drawn)	-4.32
Cc1ccc(S(=O)(=O)NC(C)C(=O)Nc2ccc(F)c(Cl)c2)cc1 (stereo not drawn)	0.709
COc1ccc2[nH]c3c(=O)n(CCCC(=O)N4CCc5ccccc5C4)c(=S)[nH]c3c2c1	4.28
CCOc1ccc(S(=O)(=O)NC(C)C)cc1C(N)=O	2.72
